# According to PubChem BioAssay AID1346428 (National Center for Advancing Translational Sciences (NCATS), 2018):
# Where “and” joins values, the source holds several entries; their conditions need not be identical. Equal values may be shown once. In all, about 48,000 compounds went through this assay and about 1,200 (2.5%) were called active. Not shown: some 2% with an inconclusive outcome.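 How the source made its calls: active means activation of at least 60% and not above a set upper limit (about 1 call in 100 departs from these limits); inconclusive means activation of 40% to 60%, or above that upper limit; inactive means activation under 40%.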 The list shows a part of the results. Where a SMILES comes first, the peptide text is derived from it. Bridges are numbered along the chain shown (N, C = ends). [ ]: non-standard residue; d: D form. hArg = N=C(N)NCCCC[C@H](N)C(=O)O; Mpa = O=C(O)CCS
# Target: Probable G-protein coupled receptor 32 (Homo sapiens) (UniProt O75388)
# Assay: qHTS for Agonists of Human Resolvin D1 Receptor DRV1; further: 0% is about no effect
# Conditions: CHO-K1 GPR32 beta-arrestin PathHunter luminescence, 90 min; at 76.9 µM; stronger effect = higher value; zero percent set by DMSO-only wells
# Procedure, shortened: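 CHO-K1 cells stably expressing ProLink-tagged GPR32 and Enzyme Activator-tagged beta-arrestin were seeded at 2,500 cells/well overnight, exposed to compounds for 90 min at 37 °C, then read by beta-Gal complementation chemiluminescence after 1 h detection reagent.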
# UniProt O75388, sequence (O75388 whole entry, looked up): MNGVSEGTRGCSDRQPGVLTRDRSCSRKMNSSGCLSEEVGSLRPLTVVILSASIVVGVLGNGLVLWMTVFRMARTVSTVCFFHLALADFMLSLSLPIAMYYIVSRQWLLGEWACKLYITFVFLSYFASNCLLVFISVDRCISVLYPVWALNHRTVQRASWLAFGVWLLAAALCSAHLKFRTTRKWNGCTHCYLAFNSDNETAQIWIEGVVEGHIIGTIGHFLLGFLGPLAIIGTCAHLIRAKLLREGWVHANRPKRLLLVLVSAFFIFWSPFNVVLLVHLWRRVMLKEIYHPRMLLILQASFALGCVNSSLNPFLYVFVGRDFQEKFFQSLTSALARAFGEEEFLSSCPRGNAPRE
row,SMILES,activation
1,CCCCNC(=O)c1ccc2c(c1)NC(=O)C(C(C)C)N2 (configuration not stated),inactive: -1.45%
2,COc1ccc2c(c1)c1c(c(=O)n(-c3ccc(F)c(Cl)c3)c(=O)n1Cc1ccccc1F)n2C,inactive: -3.86%
3,COc1ccccc1NC(=O)C(=O)c1cc(C)n(-c2cc(C)cc(C)c2)c1C,inactive: -7.59%
4,N#Cc1c(-n2ncnc2-c2cccc(Cl)c2)sc2c1CCCCC2,inactive: -6.59%
5,O=C1CN(C(=O)c2cccc(Br)c2)C(c2ccccc2)c2cc(Cl)ccc2N1 (configuration not stated),inactive: -14.3%
6,COc1cccc(C(=O)Nc2nc(-c3nnn(-c4cc(C)ccc4C)c3C)ns2)c1,inactive: 31.4%
7,CCOc1cccc(-c2nc3ccccc3c(=O)o2)c1,active: 80.2%
8,COc1ccc(Cl)cc1NC(=O)C(=O)NCc1ccc(Cl)cc1,inactive: -7.5%
9,Cc1cc(C)c2oc(C(=O)NCCc3ccc(S(N)(=O)=O)cc3)cc(=O)c2c1,inactive: -15.4%
10,CC(C)(C)c1ccc(C(=O)NC2=NC(c3cccc(F)c3)CC(=O)N2)cc1 (configuration not stated),inactive: -1.11%
11,O=C1CC(c2ccccc2)Cc2[nH]c(=O)c(-c3nc(-c4ccc(Cl)c(Cl)c4)cs3)cc21 (configuration not stated),inactive: 45.5%
12,COC(=O)C1=C(C)NC(C)=C(C(=O)OC(C)(C)CN(C)CCC(c2ccccc2)c2ccccc2)C1c1cccc([N+](=O)[O-])c1 (configuration not stated),inactive: 13% and inactive: -47.7%
13,Cc1ccc(NC(=O)N2CCN(C(=O)c3nsc4ccccc34)CC2)cc1C,inactive: 1.73%
14,COCCNS(=O)(=O)c1cc(-c2nn3c(C)nnc3c3ccccc23)ccc1C,inactive: -29.1%
15,O=C(CNS(=O)(=O)c1ccc(Br)s1)N1CCN(c2ccc(F)cc2)CC1,inactive: 9.68%
16,C[C@]12CCC(=O)C=C1CC[C@@H]1[C@@H]2CC[C@@]2(C)[C@H]1CC[C@]2(O)C(=O)CO,inactive: 7.75% and inactive: -19.4%
17,CCS(=O)(=O)NCCc1sc2nc(-c3ccc(OC)cc3)nn2c1C,inactive: 0.775%
18,O=C(O)/C=C/C(O)c1ccc(Cl)cc1 (configuration not stated),inactive: 2.31%
19,Cc1cccc(CCn2c(=O)c3ccccc3n(Cc3ccccc3C)c2=O)c1,inactive: -3.22%
20,Cc1ccc(C(=O)c2sc(Nc3ccc(F)cc3)c(C#N)c2N)cc1,active: 85.9%
21,COc1cccc(NC(=O)CN2C=NS(=O)(=O)c3ccccc32)c1,inactive: -11.6%

row,SMILES,activation
1,COc1cccc(-c2nc3c(c(SCC(=O)Nc4cccc(C)c4C)n2)Cc2c(CO)cnc(C)c2O3)c1,inactive: 4.28%
2,Cc1cccn2c(=O)cc(COc3ccc(NC(=O)COc4ccc(F)cc4)cc3)nc12,inactive: -1.08%
3,CCOc1ccccc1NC(=O)N1CC(C)Oc2ccc(Cl)cc21 (configuration not stated),inactive: -38.4%
4,CCOC(=O)c1cnc(NCc2ccc(OC)cc2OC)c2ccccc12,inactive: -26.4%
5,Cc1ccc(OC(=O)CSc2nnc(-c3ccc4c(c3)OCO4)o2)c(C)c1,inactive: -16.3%
6,COc1ccc2c(c1)c1c(c(=O)n(Cc3ccccc3)c(=O)n1CC(=O)Nc1ccccc1F)n2C,inactive: -1.67%
7,FC(F)(F)c1cccc(N2CCN(c3nc4ccccc4n4cnnc34)CC2)c1,inactive: 0.729%
8,COc1ccc(-n2c(SC)nc3sc4c(c3c2=O)CCN(C(C)=O)C4)cc1,inactive: -6.36%
9,c1ccc(-c2ccc(C(c3ccccc3)n3ccnc3)cc2)cc1 (configuration not stated),inactive: -95.1%
10,Cc1ccc(NC(=O)CSc2nnc(-c3cc4occc4n3C)n2-c2ccccc2C)c(C)c1,inactive: -21.1%
11,COc1ccc(CNC(=O)C2CCN(C(=O)c3cnn(-c4ccccc4)c3-n3cccc3)CC2)cc1,inactive: 0%
12,COC(=O)c1ccccc1NC(=O)CSc1n[nH]c(C)n1,inactive: 6.43%
13,Cc1ccn2c(=O)cc(COc3ccc(NC(=O)C(C)(C)C)cc3)nc2c1,inactive: -1.54%
14,Cc1ccc2c(c1)N(C(=O)Nc1ccc(Br)cc1F)CCO2,inactive: -17.1%
15,O=c1c2sc3ccccc3c2n(Cc2cccc(C(F)(F)F)c2)c(=O)n1-c1ccccc1,inactive: -12.9%
16,CC(C)Oc1ccc(CNC(=O)CN2C(=O)c3cccnc3Oc3ccc(Cl)cc32)cc1,inactive: -9.12%
17,CCS(=O)(=O)N1CCc2cc(C(=O)NC(C)c3ccccc3)ccc21 (configuration not stated),inactive: 1.12%
18,COc1ccccc1N1CCN(CCCNc2c(C)c(=O)n(C)c(=O)n2C)CC1,inactive: 1.02%
19,CCCCCn1c(=N)c(S(=O)(=O)c2ccc(C)cc2)cc2c(=O)n3cc(C)ccc3nc21,inactive: -6.33%
20,COc1ccc(S(=O)(=O)c2cc3cc(C(C)(C)C)cc(O)c3oc2=O)cc1,inactive: -23.1%
21,Cn1c(COc2ccccc2C(C)(C)C)nc2ccccc21,inactive: -17.5%

row,SMILES,activation
1,Cn1c2c(c(=O)n(C)c1=O)C(c1ccccc1C(F)(F)F)CC(=O)N2 (configuration not stated),inactive: -1.31%
2,CCOC(=O)c1ccc(CN(Cc2ccc(F)cc2)S(=O)(=O)c2ccc(F)c(C(=O)Nc3ccccc3C(F)(F)F)c2)cc1,inactive: -17.5%
3,COC(=O)c1ccc(NS(=O)(=O)c2ccc3c(c2)n(C)c(=O)c(=O)n3C)cc1,inactive: -10%
4,CC(C)(CC(=O)NCc1ccc(Cl)cc1Cl)CC1=NS(=O)(=O)c2ccccc2N1,active: 110%
5,Cc1ccc(C(=O)N2CCN(c3cccc(Cl)c3)CC2)cc1-n1c(C)nc2cccnc21,inactive: 0.0762%
6,CCNC(=O)CC1C(=O)N(c2ccc(F)cc2)C(=O)N1Cc1ccc(OC)c(OC)c1 (configuration not stated),inactive: -2.08%
7,COc1cc(Cl)c(C)cc1NC(=O)C1CCCN(c2ncnc3onc(-c4ccc(F)cc4)c23)C1 (configuration not stated),inactive: -16.6%
8,CCc1ccccc1N(CC)C(=O)C(=O)Nc1ccc2nc3n(c(=O)c2c1)CCCCC3,inactive: 32.2%
9,O=C(c1ccc2c(c1)N(Cc1cccc(Cl)c1)C(=O)c1ccccc1S2(=O)=O)N1CCc2ccccc21,inactive: -14.9%
10,O=C(NCc1ccc(Cl)cc1)C(=O)NCC(c1ccc2c(c1)OCO2)N1CCOCC1 (configuration not stated),inactive: -13.7%
11,COc1cc2ccccc2cc1C(=O)N1CCN(c2nc3c(F)cccc3s2)CC1,inactive: -17.4%
12,COCCN1C(=O)N(c2cccc(OC)c2)C(=O)C1CC(=O)Nc1ccccc1 (configuration not stated),inactive: -3.51%
13,CCCCc1nn2c(=O)cc(COC(=O)c3cccc(NC(=O)c4cccs4)c3)nc2s1,inactive: -0.444%
14,CC(=O)c1ccc(NC(=O)c2cc3c([nH]c2=O)CC(c2ccccc2)CC3=O)cc1 (configuration not stated),inactive: 10.6%
15,CCOc1ccc2c(c1)c(=O)c(C(=O)c1ccccc1)cn2Cc1ccccc1F,inactive: 10.6%
16,CN1C(=O)Cc2cc(S(=O)(=O)CCC(=O)Nc3ccc(Cl)cc3)ccc21,inactive: 0.01%
17,COc1ccc(CCNC(=O)c2cnn(-c3cccc(C)c3)c2C2CCNCC2)cc1OC,inactive: -5.86%
18,O=C(c1ccccc1)N1CCC(c2nc3ccccc3o2)CC1,inactive: 6.53%
19,Cc1cc(F)ccc1NC(=O)CCS(=O)(=O)c1cc2c3c(c1)CCN3C(=O)CC2,inactive: 1.5%
20,CCN(CC)C(=O)c1sc2c(c1C)c(=O)n(-c1ccc(C)c(C)c1)c(=O)n2CC(=O)Nc1ccc(OC)cc1OC,inactive: -18.1%
21,COc1ccc(OC)c(CNS(=O)(=O)c2cc(-c3onc(C)c3C)ccc2C)c1,inactive: -23.6%

row,SMILES,activation
1,CN(C)CCC(c1ccc(Br)cc1)c1ccccn1 (configuration not stated),inactive: 5.13%
2,CC(=O)c1ccc(NC(=O)CSc2nnc(-c3ccncc3)n2-c2ccccc2)cc1,inactive: 13.9%
3,COc1ccc(/C=C/C(=O)Nc2cc(-c3nc4ccccc4o3)ccc2OC)cc1,inactive: 20.5%
4,Cc1cc(C)n2c(Nc3ccc4c(c3)OCCO4)c(-c3ccccc3)nc2n1,inactive: -30.5%
5,CCS(=O)(=O)N1CC(=O)N(c2cc(C)cc(C)c2)C(C)(C(=O)NC2CCCCC2)C1 (configuration not stated),inactive: -0.224%
6,COc1ccc(N2CCN(CCCNC(=O)c3nnc(Cc4ccccc4Cl)o3)CC2)cc1,inactive: 2.71%
7,Cc1ccc(S(=O)(=O)c2[nH]c(-c3ccccc3)nc2SC(C)C(=O)O)cc1 (configuration not stated),inactive: 5.76%
8,CCOc1ccccc1NC(=O)CC1C(=O)NCCN1C(=O)c1ccc(F)cc1 (configuration not stated),inactive: 7.71%
9,NC(=O)[C@@H]1CSSCCC(=O)N[C@@H](CCCCN=C(N)N)C(=O)NCC(=O)N[C@@H](CC(=O)O)C(=O)N[C@@H](Cc2c[nH]c3ccccc23)C(=O)N2CCC[C@H]2C(=O)N1 ([Mpa][hArg]GDWPC-NH2; disulfide 1-7),inactive: 0.362%
10,COc1ccc(OC)c(Nc2nc3ccccc3n3c(C)nnc23)c1,inactive: 4.81%
11,COc1ccc(COC(=O)c2[nH]c3c(c2C)C(=O)CC(c2ccc(OC)c(OC)c2)C3)cc1 (configuration not stated),inactive: 6.7%
12,O=C(Nc1cc(-c2nc3cc(Cl)ccc3o2)ccc1Cl)c1cccs1,inactive: 3.07%
13,COc1ccc(-c2nc(CN3CCC(C(=O)NCCCN4CCN(c5ccccc5F)CC4)CC3)c(C)o2)cc1OC,inactive: -28.6%
14,NC[C@@H]1O[C@H](C23CC4CC(CC(C4)C2)C3)Cc2c1ccc(O)c2O,inactive: 19%
15,CC[C@H](C)[C@H](N)C(=O)O,inactive: 37.5%
16,COc1cc(C(O)CO)ccc1O (configuration not stated),inactive: 5.01%
17,CC(=O)SC[C@@H](C)C(=O)N1CCC[C@H]1C(=O)N[C@@H](Cc1ccccc1)C(=O)O,inactive: -6.2%
18,COCCCNC(=O)c1cc2n(n1)CCCN(Cc1ccc(C)cc1)C2=O,inactive: 7.26%
19,CCC(=O)N1c2ccccc2CC1C(=O)NCc1ccccc1C (configuration not stated),inactive: -8.44%
